US20080075796A1, “Compositions and Methods for Controlling Insects” (TyraTech, Inc., priority 2003, published 2008)

Legend:
farm ants = assay: Repellent effect on farm ants (treated filter paper); format: in vivo
Description: (§1) Adult insect are randomly selected for testing the repellent effect of compositions and are not individually marked. About 5 insects per replicate are used. About 3 replicates are used for each treatment. Untreated control tests are included with only solvent (acetone) application to an equal sized population/replications, held under identical conditions. A filter paper (about 80 cm^2) is treated with the composition (about 100 mg in […] acetone). After about 3 min of air drying, the filter paper is placed in a dish and repellency against insects is performed. Insects are released to the dish, one insect at a time at the far end of the dish. Using one or more stopwatches, the time spent on either the filter paper or the untreated surface of the dish is recorded up to about 300 seconds. Repellency ratio (RR) is calculated as follows: RR=[(time on control surface−time on treated surface)/total time of test].
The repellent effect of various plant essential oils is tested by treating a filter paper with the test oils. After about five minutes at room temperature, the paper is placed in a dish and ants are introduced one at a time. […] Oils are tested alone. Additionally, oils are mixed to form compositions, which are then tested.

Carpenter ants = assay: Repellent effect on carpenter ants (treated filter paper); format: in vivo
Description: as §1, with “test]. If RR>0 then the composition is considered to have a repellant effect, that is to say, an effect, wherein more insects are repelled away from treated surface than the control surface; if RR<0 then the composition is considered not to have a repellant effect.” for “test].”
The repellent effect of various plant essential oils is tested by treating a filter paper with the test oils. After about five minutes at room temperature, the paper is placed in a dish and ants are introduced one at a time. The repellency is determined as described above, in Example 14. Oils are tested alone. Additionally, oils are mixed to form compositions, which are then tested.

[1] = Day 0, time on treated surface of up to about 300 seconds

Row | SMILES | Repellency %, R % (farm ants; Day 0) [%] | sec. on T surface (farm ants; [1]) [s] | Repellency %, R % (farm ants; Day 1) [%] | sec. on T surface (farm ants; Day 1) [s] | sec. on T surface (Carpenter ants; Day 0, time on treated surface of up to about 300 seconds, listed as Geraniol) [s] | Repellency %, R % (Carpenter ants; Day 1) [%] | sec. on T surface (Carpenter ants; Day 1) [s]
1 | C=CCc1ccc(O)c(OC)c1 [eugenol] | 48.8 | 76.8 | 07.3 | 139.0 |  |  | 
2 | CC(C)=CCC/C(C)=C/CO [geraniol] |  |  |  |  | 69.0 | 14.0 | 129.0
3 | O=CCc1ccccc1 [phenyl acetaldehyde] | 03.5 | 144.8 |  |  |  |  | 
4 | CC(=O)OCc1ccc2c(c1)OCO2 [piperonyl acetate] | 65.1 | 52.4 | 28.9 | 106.6 |  |  | 
